Measurements published in the supplement of paper PMC11417369.
± gives the standard deviation of the averaged measurements. Some of the results follow.

system: PfAP2-I AP2 domain 3 (GST-tagged); test: gcPBM binding intensity (ln(normalized median fluorescence intensity)); higher = stronger DNA binding
Summary of the method: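 For binding intensity, the highest Masliner-normalised natural-log median intensity across replicate spots of either probe orientation was taken. Protein bound to the array was stained with Alexa488 anti-GST antibody and scanned at 488 nm. The protein, GST-tagged P. falciparum DNA-binding domains from E. coli at about 25 μg on average, had been applied for 1 h to an Agilent 4 × 180k array of primer-extended double-stranded 36-bp intergenic genomic probes and negative controls.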

Sequence	gcPBM binding intensity (ln)
TTAAATAAAAGGTTTAGTACTTAAAATAAGAAATGA [XGTACX_site6341]	7.77 ± 0.4
GTAAATATAAACTCAGCACACAAACATATATATGTC [CACACA_site9326]	8.09 ± 0.35
TTATATATATTTAAAAAAATAACATAAATAAATAAA [CACACA_negctrl_site347]	7.5 ± 0.59
CACTTTTTTTTTTACTGTACATATACAAATTAAAAA [XGTACX_site1565]	8.06 ± 0.43
TTTTATTTATCTTAATGTACACATTTATATATATAT [XGTACX_site8588]	9.05 ± 0.25
TATAATAATTAAAAGTGTACTAAATTTTTACATATA [XGTACX_site2523]	7.74 ± 0.46
TTCTAAACACATTGACAAATTAATATATTACAGCAA [GTGCAC_negctrl_site121]	7.72 ± 0.38
TTATAATTCTATTATCTGTTCTTTTTATATTTTTTT [CACACA_negctrl_site855]	7.25 ± 0.68
TTATTTTTCAATGAAAAGGATTATATATATATATAT [CACACA_negctrl_site757]	9.38 ± 0.26
AAAATTTATAGTATGGTGCATAAAAATATATATATA	11.4 ± 0.23
TATAAGAAAAATAACACACACATAAACATAAATACA [CACACA_site5536]	7.95 ± 0.58
AAAAAAAAAAAAAAATGTACATAAAAATGATATAAT [XGTACX_site4096]	8.24 ± 0.28
TATATATAGAAACACACACACATATATATATATATA [CACACA_site773]	9.36 ± 0.29
GTATATATATATAAAAGTACATGTTATGAAAAAAAA [XGTACX_site5410]	8.18 ± 0.42
TTTTTTCTCAAAAAAAAAACCTATGGTTATTAAGAT [XGTACX_negctrl_site534]	7.35 ± 0.49
ATTAAGTATATTTCTGCACACAAAAAAAAAAACCAA [CACACA_site9342]	8.95 ± 0.13
ATTTATTTGTTTATTTGTTTATTTGTTTATTTGTTT [CACACA_negctrl_site1386]	7.68 ± 0.59
AATTTAATATAATGCACACATAAAAAAAAATTCAAA [CACACA_site2062]	11 ± 0.79
ATGAAAACCATGACGGGTACTCATTTATTATTTTAT [XGTACX_site6724]	7.64 ± 0.59
TTAAGAATCTATACTAGTACATATATGTATACAAGC [XGTACX_site8025]	7.84 ± 0.56
TATATATATATGTGTAGTACAACAAATATGAAAAAT [XGTACX_site4059]	9.365 ± 0.092
ATTGTGTTAATAAAATGTACATTTTCTCTACTTTAA [XGTACX_site1199]	8.02 ± 0.52
TGTAGAACAAAAAATTGTACATATTTGTAAAAAAAA [XGTACX_site3850]	7.71 ± 0.73

Sequence	gcPBM binding intensity (ln)
CCTAATTTTATTAGGGTGCATTTTTAGTTAAATATA	10.3 ± 0.49
ACAATATATAAAATATGTACATAATATATATAATGA [XGTACX_site8731]	7.75 ± 0.2
TAAGTTATATGTACTACACACGTACACAAAATAAGA [CACACA_site9237]	8.17 ± 0.4
ATCCACAAATTAACAAGTACATATATATATATATAT [XGTACX_site1267]	9.29 ± 0.47
TGATGAAAATTTTTCTGTACAAAAAGTATGAAGGTA [XGTACX_site8901]	8.22 ± 0.64
TTGGATTTTTCCTATGAACACACGGGGTTACAATTA [CACACA_site449]	7.74 ± 0.52
TCCAATAATTTATAAAAAAAAAAAGGGAAAATGTAT [TGCATGCA_negctrl_site492]	7.67 ± 0.72
ATATATTTATTATTAACATGCAATCATTATATATAA [TGCATGCA_site404]	7.58 ± 0.49
TTAATATGAGAATAATGTACAAGAAAATATTACATA [XGTACX_site6609]	7.7 ± 0.32
AAAATAATAAAAAACTGTACGAATTAAAAATTAACA [XGTACX_site8454]	7.46 ± 0.46
TACAACTTAATATGTACACACAAATATATATATATA [CACACA_site5138]	9.19 ± 0.29
GATACCTATAGACACACACACATACCTATATACATA [CACACA_site7586]	8.15 ± 0.49
ATTCATCCAATAATGTGAATTATCATGATAAACTTA [TGCATGCA_negctrl_site406]	7.41 ± 0.61
TTTATAAATAAACACACACACATGTGAACATAAAAA [CACACA_site5110]	7.89 ± 0.58
GAAATACATTTTAAAAAATAAGTAATTATAAAATAA [TGCATGCA_negctrl_site303]	7.3 ± 0.59
ATTATTCTATATGAAACATGCATACATTTGTATTTT [TGCATGCA_site823]	7.79 ± 0.47
ATATATGTAAATGAATGTACATTATTTTATATATTA [XGTACX_site8460]	7.59 ± 0.26
ATCAAAATTGTCATTACACACCTTTATTTTTAGAAT [CACACA_site1813]	7.95 ± 0.66
ATTATATATATCAGGTGTACGTAAAAAAAATGGACG [XGTACX_site1028]	8.43 ± 0.52
TTTTTTTTTTTTTTTACACACTCCAATAAAAAAGAA [CACACA_site2119]	8.27 ± 0.73
GAGGTCTTTTTTAATGTGCACATATATATATATATA	10.1 ± 0.13
TTTTTTTATTAATGTAGTACAATATAATGTTATATT [XGTACX_site2295]	7.97 ± 0.3
TAATTTATAAATATAATATTTATGTATATGATGTTT [CACACA_negctrl_site464]	7.59 ± 0.57

Sequence	gcPBM binding intensity (ln)
TATAAAAATATATTTACACACTATAAATATCGAAAG [CACACA_site6896]	7.71 ± 0.38
TTCAAGATTTATTATACACACATATTAAAATATATA [CACACA_site4479]	7.7 ± 0.35
AATCTATCAAAGTGTACATGCAATAAAAAAAAAAAA [TGCATGCA_site103]	8.34 ± 0.6
AAAAAATTATTATGAACACACATTTATTATATTCAT [CACACA_site1566]	7.39 ± 0.57
AAACATTTTCATTTGACACACATCATATATTTATAT [CACACA_site1794]	7.97 ± 0.71
TTAATGTACAGACACCCACACACAAACAAATATATA [CACACA_site8888]	8.07 ± 0.28
AAAAGAAAAAAAAGTACACACATGTATATTAAGCGT [CACACA_site5402]	8.21 ± 0.4
GCGTGCGTGTACTTAACACACATAATATGTATTTAT [CACACA_site1247]	8.53 ± 0.3
TTTTTTTTTCCCCCATGTACATAAATAAGTATATCT [XGTACX_site6965]	9.21 ± 0.18
CTTTCATTTCTATCTACACACATATTTTTTCCAAGT [CACACA_site2972]	8.18 ± 0.56
ATATGTACTATACGCACACACACTCACATATATATA [CACACA_site3239]	8.85 ± 0.34
AATTATATGAAATAAACACACATATGCAATATTGCA [CACACA_site6988]	8.28 ± 0.61
TATATATATAAATACAGTACATATATAATATTTTGA [XGTACX_site637]	8.61 ± 0.51
TAACTTAATTTTAATGCACACAATTTATATATATAT [CACACA_site6022]	11.2 ± 0.52
AAAAATATATATATATATATATATATATTATTTTTT [TGCATGCA_negctrl_site378]	7.92 ± 0.35
CTTTCCATATATGATAGTACACGATAAAAAAAAAAA [XGTACX_site5772]	8.23 ± 0.65
TTTAAAAAAAATTCATATTATATATATATATATTAT [CACACA_negctrl_site1733]	7.54 ± 0.49
AAAGAAATAAGGTGCACACATATACATATATATATA [CACACA_site429]	10.3 ± 0.29
TAATAATAGTACTGACATCAAAATCTTATTAAAAAT [GTGCAC_negctrl_site308]	7.58 ± 0.4
TTCTTTTTTATTTTTCAACACACATAATAAATTTCT [CACACA_site8253]	8.26 ± 0.46
TACCCTTGCATGTAGGTGCAATTTTTTTTTTTTTTT	10.6 ± 0.35
TTCGTAATTTATATCACACACATATATATATAATAA [CACACA_site3115]	8.12 ± 0.5
CAACTTTATACATATAGTACAAGTTATATTTTATTA [XGTACX_site6651]	7.46 ± 0.39

Sequence	gcPBM binding intensity (ln)
AACGATTTACATCACTGTACTAATGATATACCTCAT [XGTACX_site7463]	7.88 ± 0.69
TATATATTTTCTTTTGCACACTGTTTTCCTTTTTTT [CACACA_site2739]	9.51 ± 0.38
TATATATATATATATTGTACTATATAGTATCTTTTT [XGTACX_site1646]	9.32 ± 0.3
AAGGTATACACTGCTTTATCAAGTTTAACTCTTTTT [XGTACX_negctrl_site118]	7.77 ± 0.71
ACATCATAAAATTTATGTACACATTTTTAATTATAC [XGTACX_site7759]	8.19 ± 0.19
ATCATTTTTATGTACACACACATATACGTTGAATAT [CACACA_site1865]	8.38 ± 0.18
AAGATATGAGGGAATACACACATATTTATATTTATA [CACACA_site6846]	7.42 ± 0.61
TATAAAATTTACGTGTGTACATATTTAATAATTTTT [XGTACX_site5001]	7.7 ± 0.39
AAATTTGAAATGCATGAACACACACCGCTATAAATG [CACACA_site8230]	8.22 ± 0.69
TAAATATAGAAACACACACACATTAATACATATATT [CACACA_site3489]	7.74 ± 0.65
TAATTTTTTATATATTGTACAAATAATATATGATGT [XGTACX_site268]	7.92 ± 0.22
TTTATGTATTTAATATGTACATATAGTTGTTAATAA [XGTACX_site1938]	7.8 ± 0.23
GCTATATATTAATGTTGTACTTTATGTTCATATTGT [XGTACX_site3619]	7.87 ± 0.57
AAAATGTACGCATATACACACACATAAATAGATACG [CACACA_site9124]	8 ± 0.58
ATATATATATAATTATATAAAATATATCATATGTTA [XGTACX_negctrl_site47]	8.76 ± 0.16
AAGAAATAAATACATACACACATATATAAATAAATA [CACACA_site7559]	7.64 ± 0.56
AAGAAATAATTATTATGTACTTAAAAAAATTAAAAT [XGTACX_site7423]	7.78 ± 0.45
GCAAGTCCATGAACGGTGCAGGAATTAACAAAAATA	9.06 ± 0.49
AATAAAAATAAAAGCACACATAAATATATATATATT [CACACA_site1441]	8.575 ± 0.049
TCATGGCCATTTTCAGTGCATATGTGTATTTAATAT [GTGCAC_site9529]	9.1 ± 0.2
